Assay results from the RNAGym collection of RNA variant scans (doi:10.1073/pnas.2313332121).
Variants at the background level are over-represented here.

B1: TPR 5TU (parent)
chain: GGAUCUUCUCGAUCUAACAAAAAAGACAAAUCUGCCACAAAGCUUGAGAGCAUCUUCGGAUGCAGAGGCGGCAGCCUUCGGUGGCGCGAUAGCGCCAACGUUCUCAACUAUGACACGCAAAACGCGUGCUCCGUUGAAUGGAGUUUAUCAUG

Variants of: B1
Test: polymerase ribozyme fitness, log enrichment relative to wild type (log ratio); higher = more active; in vitro selection for triplet polymerase activity
Summary of the method: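 Fitness is a logarithmic measure of how a genotype enriched relative to the wild type, with replicate averages weighted by inverse variance. The logarithm uses base 2, and enrichment came from Illumina sequencing of input and output libraries. Those libraries were PCR-built, transcribed mutants of each subunit of a heterodimeric triplet polymerase ribozyme, passed through one triplicate in vitro selection round that included frozen incubation at −7 °C, gel excision of extended constructs and streptavidin-bead capture. Genotypes were kept only if they had ≥10 input reads and ≥1 read per output.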

| Variant | polymerase ribozyme fitness (log ratio) |
| --- | --- |
| C51U C54G G140C A150G | ≤ -4.2 |
| C51U C57A C85U U111G C129U | ≤ -4.2 |
| C51U C57U A66G G67C U102A | ≤ -4.2 |
| C51U C57U A121C A122G G136U U148A | ≤ -4.2 |
| C51U C69G G94C U146C | -1.9 |
| C51U C75U C96U G143C | -4.11 |
| C51U C76G C85A C95A C132U U144C U151A | ≤ -4.2 |
| C51U C76G G84A A137U U151A | ≤ -4.2 |
| C51U C79A C87G G143A | ≤ -4.2 |
| C51U C79U | -3.01 |
| C51U C85A | -2.63 |
| C51U C85G A106G | -2.8 |
| C51U C85G C108G G112C U139C | ≤ -4.2 |
| C51U C85U | -0.8 |
| C51U C87A A120U G126A | ≤ -4.2 |
| C51U C87G A98U | ≤ -4.2 |
| C51U C87U A121U | -0.813 |
| C51U C87U C103A C116A | -2.08 |
| C51U C93G C116U G141A | -3.75 |
| C51U C93G U130C U145A | -3.53 |
| C51U C95A U104C C116G | -0.304 |

| Variant | polymerase ribozyme fitness (log ratio) |
| --- | --- |
| C51U C95U C105G A107U C118A | ≤ -4.2 |
| C51U C95U U104G U144A | -2.33 |
| C51U C96G C132A | -3.26 |
| C51U C96U A122C U148G G152A | ≤ -4.2 |
| C51U C108U C131G A138G U139C | ≤ -4.2 |
| C51U C131G | -3.49 |
| C51U G58C C75G | ≤ -4.2 |
| C51U G58C G62U C69U C96G | -3.67 |
| C51U G58U U77G C96A | -4.18 |
| C51U G58U U82G C96U | -0.59 |
| C51U G59A C85G A137U | ≤ -4.2 |
| C51U G59C C72A | ≤ -4.2 |
| C51U G62C G70A A115U C116A | ≤ -4.2 |
| C51U G65C C93U C95G A119U G141U | ≤ -4.2 |
| C51U G70U G88A G94U A106C | ≤ -4.2 |
| C51U G71A C72A C95U A122U U130G U134A | ≤ -4.2 |
| C51U G71A C85U C99U G136U | ≤ -4.2 |
| C51U G74A G88C G143A | ≤ -4.2 |
| C51U G74C G92C C149G | ≤ -4.2 |
| C51U G83U | -0.266 |
| C51U G84A G117C U135A | -0.541 |

| Variant | polymerase ribozyme fitness (log ratio) |
| --- | --- |
| C51U G84C U101A A106C A120C C125A U135G | ≤ -4.2 |
| C51U G84U C103G A110U G128C | ≤ -4.2 |
| C51U G86C | -2.98 |
| C51U G86C G126A G143C | ≤ -4.2 |
| C51U G92A | -3.5 |
| C51U G92C C105A C116A | ≤ -4.2 |
| C51U G94C U127C U135G | ≤ -4.2 |
| C51U G100A | ≤ -4.2 |
| C51U G140U | -2.55 |
| C51U U53A A110C C116A | ≤ -4.2 |
| C51U U53A C96G C105G G133U | ≤ -4.2 |
| C51U U53A C99U G140U U144C | ≤ -4.2 |
| C51U U53G C75U G140A G141A | ≤ -4.2 |
| C51U U55A A64C G88A A106U U139G G143C | ≤ -4.2 |
| C51U U55A C75A C85U U101A C114U A115G G124A | ≤ -4.2 |
| C51U U55A C85G C105A C125G G141A | ≤ -4.2 |
| C51U U55A G83A U151A | ≤ -4.2 |
| C51U U55A G86A C93A G124U G136C U148G | ≤ -4.2 |
| C51U U56A G68A G94A C96A U101C | ≤ -4.2 |
| C51U U61C C76U G94C A121U C125G U145A | ≤ -4.2 |
| C51U U102G A120G G124A C149G | ≤ -4.2 |

| Variant | polymerase ribozyme fitness (log ratio) |
| --- | --- |
| A52C A60C U61A G88C A107U A137G | ≤ -4.2 |
| A52C A64C C95U G141U | ≤ -4.2 |
| A52C A64G C85U U145G | ≤ -4.2 |
| A52C A64U G71A G81A | ≤ -4.2 |
| A52C A66G C72A A97U C99A | ≤ -4.2 |
| A52C A66U G88C G143C | ≤ -4.2 |
| A52C A97U | -1.59 |
| A52C A98G C132G | ≤ -4.2 |
| A52C A106G U139C | ≤ -4.2 |
| A52C A110G A150G | -3.86 |
| A52C A137U | ≤ -4.2 |
| A52C C54A A66G C96G | ≤ -4.2 |
| A52C C54A G62C U82G G83A C87A U146G | ≤ -4.2 |
| A52C C54G G67C C85U C114A | ≤ -4.2 |
| A52C C54G U55A A91C C96U U111C C116G | ≤ -4.2 |
| A52C C54U A73U G83C C95A C108A A137C | ≤ -4.2 |
| A52C C54U C69A C95U A121G U127C | ≤ -4.2 |
| A52C C54U G86A C131G A142G | ≤ -4.2 |
| A52C C54U U55A C96G U109A C116A | ≤ -4.2 |
| A52C C57A C69U C85U | -3.07 |
